Measured values published in PMC9911399, “Two distinct binding modes provide the RNA-binding protein RbFox with extraordinary sequence specificity”.
Residue numbers refer to the chain shown, from its start. This is one part of the list.

T1: RBFOX1 RRM RbFoxmut (Fox-RRM*) (Homo sapiens, UniProt Q9NWB1 109-208, R118D;E147R;N151S;E152T)
T1 sequence: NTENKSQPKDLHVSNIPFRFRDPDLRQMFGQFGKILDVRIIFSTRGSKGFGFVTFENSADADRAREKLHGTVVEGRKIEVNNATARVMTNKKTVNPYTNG

B1: CUUCACA (DNA:RNA)
RNA: GGGAGACCGGAAUUCAGAUUGUCCCUUCACAUUAAAUCCCGUCGUAGCCACCA
DNA 1: CAATCTGAATTCCGGTCTCCC
DNA 2: TGGTGGCTACGACGGGATT
B2: CAUUGGU (DNA:RNA)
RNA: B1 RNA with U26A, C28U, A29G, C30G, A31U
DNA 1: CAATCTGAATTCCGGTCTCCC
DNA 2: TGGTGGCTACGACGGGATT
B3: CACCCAU (DNA:RNA)
RNA: B1 RNA with U26A, U27C, A29C, C30A, A31U
DNA 1: CAATCTGAATTCCGGTCTCCC
DNA 2: TGGTGGCTACGACGGGATT
B4: GACUCGU (DNA:RNA)
RNA: GGGAGACCGGAAUUCAGAUUGUCCGACUCGUUUAAAUCCCGUCGUAGCCACCA
DNA 1: CAATCTGAATTCCGGTCTCCC
DNA 2: TGGTGGCTACGACGGGATT
B5: GGGCGAA (DNA:RNA)
RNA: B1 RNA with C25G, U26G, U27G, A29G, C30A
DNA 1: CAATCTGAATTCCGGTCTCCC
DNA 2: TGGTGGCTACGACGGGATT
B6: GCAGCUC (DNA:RNA)
RNA: B4 RNA with A26C, C27A, U28G, G30U, U31C
DNA 1: CAATCTGAATTCCGGTCTCCC
DNA 2: TGGTGGCTACGACGGGATT
B7: CUAUUGU (DNA:RNA)
RNA: B4 RNA with G25C, A26U, C27A, C29U
DNA 1: CAATCTGAATTCCGGTCTCCC
DNA 2: TGGTGGCTACGACGGGATT
B8: AGCAAUU (DNA:RNA)
RNA: B4 RNA with G25A, A26G, U28A, C29A, G30U
DNA 1: CAATCTGAATTCCGGTCTCCC
DNA 2: TGGTGGCTACGACGGGATT
B9: GCUAGCC (DNA:RNA)
RNA: B1 RNA with C25G, U26C, C28A, A29G, A31C
DNA 1: CAATCTGAATTCCGGTCTCCC
DNA 2: TGGTGGCTACGACGGGATT
B10: UCUCCCC (DNA:RNA)
RNA: B1 RNA with C25U, U26C, A29C, A31C
DNA 1: CAATCTGAATTCCGGTCTCCC
DNA 2: TGGTGGCTACGACGGGATT
B11: GCGUGAU (DNA:RNA)
RNA: B4 RNA with A26C, C27G, C29G, G30A
DNA 1: CAATCTGAATTCCGGTCTCCC
DNA 2: TGGTGGCTACGACGGGATT
B12: GUUUACU (DNA:RNA)
RNA: B1 RNA with C25G, C28U, A31U
DNA 1: CAATCTGAATTCCGGTCTCCC
DNA 2: TGGTGGCTACGACGGGATT
B13: CUAUCCG (DNA:RNA)
RNA: B1 RNA with U27A, C28U, A29C, A31G
DNA 1: CAATCTGAATTCCGGTCTCCC
DNA 2: TGGTGGCTACGACGGGATT
B14: GUUGGGU (DNA:RNA)
RNA: B4 RNA with A26U, C27U, U28G, C29G
DNA 1: CAATCTGAATTCCGGTCTCCC
DNA 2: TGGTGGCTACGACGGGATT
B15: CAGGCAA (DNA:RNA)
RNA: B1 RNA with U26A, U27G, C28G, A29C, C30A
DNA 1: CAATCTGAATTCCGGTCTCCC
DNA 2: TGGTGGCTACGACGGGATT
B16: GGGUAUG (DNA:RNA)
RNA: B4 RNA with A26G, C27G, C29A, G30U, U31G
DNA 1: CAATCTGAATTCCGGTCTCCC
DNA 2: TGGTGGCTACGACGGGATT
B17: AUGUAGA (DNA:RNA)
RNA: B1 RNA with C25A, U27G, C28U, C30G
DNA 1: CAATCTGAATTCCGGTCTCCC
DNA 2: TGGTGGCTACGACGGGATT
B18: GCUUCAU (DNA:RNA)
RNA: B4 RNA with A26C, C27U, G30A
DNA 1: CAATCTGAATTCCGGTCTCCC
DNA 2: TGGTGGCTACGACGGGATT
B19: CUUACGG (DNA:RNA)
RNA: B1 RNA with C28A, A29C, C30G, A31G
DNA 1: CAATCTGAATTCCGGTCTCCC
DNA 2: TGGTGGCTACGACGGGATT
B20: ACGCUAA (DNA:RNA)
RNA: B1 RNA with C25A, U26C, U27G, A29U, C30A
DNA 1: CAATCTGAATTCCGGTCTCCC
DNA 2: TGGTGGCTACGACGGGATT
B21: CAGACUG (DNA:RNA)
RNA: B4 RNA with G25C, C27G, U28A, G30U, U31G
DNA 1: CAATCTGAATTCCGGTCTCCC
DNA 2: TGGTGGCTACGACGGGATT
B22: GACUGCC (DNA:RNA)
RNA: B4 RNA with C29G, G30C, U31C
DNA 1: CAATCTGAATTCCGGTCTCCC
DNA 2: TGGTGGCTACGACGGGATT
B23: GCGUGGA (DNA:RNA)
RNA: B4 RNA with A26C, C27G, C29G, U31A
DNA 1: CAATCTGAATTCCGGTCTCCC
DNA 2: TGGTGGCTACGACGGGATT
B24: CAACGAG (DNA:RNA)
RNA: B1 RNA with U26A, U27A, A29G, C30A, A31G
DNA 1: CAATCTGAATTCCGGTCTCCC
DNA 2: TGGTGGCTACGACGGGATT
B25: AAGUUAA (DNA:RNA)
RNA: B4 RNA with G25A, C27G, C29U, G30A, U31A
DNA 1: CAATCTGAATTCCGGTCTCCC
DNA 2: TGGTGGCTACGACGGGATT
B26: UAUGCGG (DNA:RNA)
RNA: B4 RNA with G25U, C27U, U28G, U31G
DNA 1: CAATCTGAATTCCGGTCTCCC
DNA 2: TGGTGGCTACGACGGGATT
B27: UUGAGUG (DNA:RNA)
RNA: B1 RNA with C25U, U27G, C28A, A29G, C30U, A31G
DNA 1: CAATCTGAATTCCGGTCTCCC
DNA 2: TGGTGGCTACGACGGGATT
B28: GGCUCGA (DNA:RNA)
RNA: B4 RNA with A26G, U31A
DNA 1: CAATCTGAATTCCGGTCTCCC
DNA 2: TGGTGGCTACGACGGGATT
B29: CAGCAUG (DNA:RNA)
RNA: B1 RNA with U26A, U27G, C30U, A31G
DNA 1: CAATCTGAATTCCGGTCTCCC
DNA 2: TGGTGGCTACGACGGGATT
B30: AUGCUAG (DNA:RNA)
RNA: B1 RNA with C25A, U27G, A29U, C30A, A31G
DNA 1: CAATCTGAATTCCGGTCTCCC
DNA 2: TGGTGGCTACGACGGGATT
B31: GAUUCAG (DNA:RNA)
RNA: B4 RNA with C27U, G30A, U31G
DNA 1: CAATCTGAATTCCGGTCTCCC
DNA 2: TGGTGGCTACGACGGGATT

The binders below were run against T1, RBFOX1 RRM RbFoxmut (Fox-RRM*) (assay: EMSA; HiTS-Eq, 1 nM pool, 10 min; buffer printed only for the single-RNA assays: 10 mM Tris pH 7.5, 150 mM NaCl, 3.4 mM EDTA, 0.001% NP-40, 30 C). Conditions: tags: His6 N-terminal (pET28a); label: 5' 32P.
Summary of the method: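 Purified RbFox RRM, wild type or mutant, was incubated for 10 min in 50 µL with 1 nM of a 5′-radiolabelled RNA pool carrying 7 randomized nucleotides, whose flanks were annealed to DNA oligonucleotides, over a series of increasing protein concentrations. Unbound RNA was resolved on 8% native PAGE, cut out, reverse-transcribed, barcoded by PCR and sequenced on an Illumina HiSeq 2500. Relative association constants were derived from changes in read counts for each RNA species versus the control reaction and normalised to the cognate motif.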
B1 was tested, and the binding signal was 0.0931 KA relative to UGCAUGU.
For B2, the binding signal was 0.154 KA relative to UGCAUGU.
With B3 the binding signal was 0.103 KA relative to UGCAUGU.
For B4, the binding signal was 0.133 KA relative to UGCAUGU.
For B5, the binding signal was 0.103 KA relative to UGCAUGU.
B6 was tested, and the binding signal was 0.0411 KA relative to UGCAUGU.
With B7 the binding signal was 0.146 KA relative to UGCAUGU.
B8 was tested, and the binding signal was 0.0706 KA relative to UGCAUGU.
For B9, the binding signal was 0.125 KA relative to UGCAUGU.
In the case of B10, the binding signal is reported as 0.064 KA relative to UGCAUGU.
In the case of B11, the binding signal is reported as 0.136 KA relative to UGCAUGU.
For B12, the binding signal was 0.115 KA relative to UGCAUGU.
With B13 the binding signal was 0.0597 KA relative to UGCAUGU.
B14 was tested, and the binding signal was 0.115 KA relative to UGCAUGU.
B15 was tested, and the binding signal was 0.0621 KA relative to UGCAUGU.
B16 was tested, and the binding signal was 0.93 KA relative to UGCAUGU.
B17 was tested, and the binding signal was 0.152 KA relative to UGCAUGU.
B18 was tested, and the binding signal was 0.101 KA relative to UGCAUGU.
For B19, the binding signal was 0.0934 KA relative to UGCAUGU.
For B20, the binding signal was 0.138 KA relative to UGCAUGU.
B21 was tested, and the binding signal was 0.0995 KA relative to UGCAUGU.
In the case of B22, the binding signal is reported as 0.173 KA relative to UGCAUGU.
In the case of B23, the binding signal is reported as 0.092 KA relative to UGCAUGU.
For B24, the binding signal was 0.0907 KA relative to UGCAUGU.
For B25, the binding signal was 0.143 KA relative to UGCAUGU.
In the case of B26, the binding signal is reported as 0.118 KA relative to UGCAUGU.
B27 was tested, and the binding signal was 0.277 KA relative to UGCAUGU.
For B28, the binding signal was 0.204 KA relative to UGCAUGU.
For B29, the binding signal was 0.965 KA relative to UGCAUGU.
In the case of B30, the binding signal is reported as 0.179 KA relative to UGCAUGU.
With B31 the binding signal was 0.155 KA relative to UGCAUGU.
